Data taken from article PMC3510253 (PLoS Pathogens, 2012).
These are yes or no findings as the source states them, for the method shown. Binding seen in cells or lysates may run through a third protein. Some entries that bind do so weakly or less than the wild type. Tags and fused reporters may be left off the sequences shown.

Protein sequences, listed by entry. Tags and fused reporters are not part of them.
UniProt P03496: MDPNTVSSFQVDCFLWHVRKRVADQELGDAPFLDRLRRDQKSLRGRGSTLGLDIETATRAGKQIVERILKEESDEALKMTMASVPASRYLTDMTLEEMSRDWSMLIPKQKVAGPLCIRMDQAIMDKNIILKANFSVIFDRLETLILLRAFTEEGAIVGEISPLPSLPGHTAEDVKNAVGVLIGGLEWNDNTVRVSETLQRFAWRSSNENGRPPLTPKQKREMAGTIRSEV

Target: NS1 protein of influenza A/Puerto Rico/8/34 (PR8), expressed from the virus in infected cells (influenza A virus A/Puerto Rico/8/34 (PR8)) (UniProt P03496)
Assay: co-IP

B1: Myc/DDK-tagged mouse Riplet (enzyme, UniProt Q9CWS1 1-417)
chain: MAAVCSGNAVPVWLSEDDLSCIICQGLLDQPTTLPCGHSFCLRCLHDLWVSKRGAVDGCPWACPICRKGPLTKPKLHKNPLLQDLVDKYLQAAREVEAGSEPEPAPAPRSAPQVTVQKSTTNVIQELTDMVRQLVDDVKSLQTQRPNLGSGQDNAQGTPPTDSSSEGEHSLDSPKLVTFSISQKKIQEILHNLEEIQEKLQGSVPGRAPPRERVQEMTSSLCLLPDQRRPAPRKASHLSLWAISPTFDLRTLSYNLEVSNNSRRVTVSRGDLHTYHWSPQRFSISQVFCSQALSSGQKYWEVDTRNCSHWAIGVASWGMKRDGMLGRTMDSWCIEWRGPGQFSAWAKMKKTDLQSDLPEVVGVWLDLESGELAFYAVADHERLLYECEVSSSSPLHPAFWLYGLSPGNYLEIKQLNT
Question: Which binding does the source give for B1 here?
Answer: binds
